This is an account of results in PubChem BioAssay AID1963576 (National Center for Advancing Translational Sciences (NCATS), 2024).

In all, about 46,000 compounds went through this assay and about 60 (0.1%) were called active. Another 3% or so got no clear call; they are omitted. The call rests on the fitted dose curve; in most records, active means well fitted inhibition curve with a large enough effect; inconclusive means small, poorly fitted or top-dose-only effect; inactive means no such curve, though single readings can be large or run the other way. This is one part of the list.

The nature of this test: Primary qHTS assay for Inhibitors of ovarian cancer metastasis using an organotypic tumor microenvironment (TME) model. Further: nearly all actives have a fitted effect of over 65% in size.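 On activity change, negative = inhibition: plate controls were DMSO wells for no effect and tomatine positive control wells for full effect.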 As to conditions: SKOV3ip1-GFP adhesion/invasion on 3D omental model, fluorescence; series mostly up to 45.8 µM; activity change, negative = inhibition: at the top concentration. The gist of the method:
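Adhesion/invasion was scored as fixed GFP-labeled SKOV3ip1 cell counts (488/509 nm), normalized to DMSO and tomatine controls. Cancer cells in serum-free medium, with four compound doses (0.36-46 umol/L), sat 2 hr at RT then 16 hr at 37 C on a 48 hr fibroblast/mesothelial/ECM culture.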
For orientation: qHTS replaces the single test concentration by a dilution series.
`COc1ccc(-c2nc3sc(CCNC(=O)C(C)(C)C)c(C)n3n2)cc1`: the “activity change, negative = inhibition” value is inactive: -8.64%. On to `CCOCCCNC(=O)c1ccc(-c2nc(CS(=O)(=O)c3ccccc3)c(C)o2)cc1`, for which the “activity change, negative = inhibition” value was inactive: 9.53%. Consider `CNC(=O)C1CCCN(c2nnc(C)c3c(C)n(-c4ccccc4)nc23)C1` (stereo unspecified), for which the “activity change, negative = inhibition” value is inactive: -2.64%. `CCOc1cccc2sc(N(Cc3cccnc3)C(C)=O)nc12`: the “activity change, negative = inhibition” value is inactive: 2.08%. The same measure, in the same setting: the result for `O=C(Nc1ccc(F)c(Cl)c1)c1cc(S(=O)(=O)NCc2ccc3c(c2)OCO3)ccc1F` reads inactive: 1.92%. Take `Cc1cc2nc(-c3ccc(NC(=O)c4ccc(OCC(C)C)cc4)cc3)oc2cc1C`: the “activity change, negative = inhibition” value is inactive: 3.56%. The same measure, in the same setting: the result for `CC(C)Cc1nn2cc(-c3cccc(Br)c3)nc2s1` reads inactive: 36.1%; that for `CCOc1ccc(N2CC(c3nc4ccccc4n3CCOc3ccc(OC)cc3)CC2=O)cc1` (stereo unspecified), inactive: -25.5%; that for `CCOc1ccc2nc(N3CCCC(C(=O)NCCc4ccc(OC)cc4OC)C3)sc2c1` (stereo unspecified), inactive: -1.7%. Regarding `CCCCN(CC)CCNC(=O)Cn1cnc2sc(C)c(S(=O)(=O)N3CCN(c4ccccc4OC)CC3)c2c1=O`, the “activity change, negative = inhibition” value was inactive: 2.27%. Same read-out and setting: then `O=C(NCCc1ccccc1)c1ccc(CSc2nc3cccnc3n2Cc2ccccc2)cc1`, with inactive: 5.13%; and `CC(NC(=O)CCc1cn(Cc2ccccc2Cl)c2ccccc12)c1ccccc1` (stereo unspecified), with inactive: 9.34%; and `CCc1ccccc1NC(=O)Cn1nnc(C(=O)NCc2ccco2)c1N`, with inactive: -2.9%. The same measure, in the same setting: the result for `CCOC(=O)c1nnc2c(-c3ccc(Cl)cc3)c(C)nn2c1N` reads inactive: 4.44%; that for `O=C(CCS(=O)(=O)c1ccccc1)N(Cc1cccnc1)c1nc2c(F)cccc2s1`, inactive: -3.09%.

Consider `O=C(NCCO)C(=O)NCC(c1ccc2c(c1)OCO2)N1CCOCC1` (stereo unspecified), for which the compound was called inactive.

On to `CC(C)CN(c1ccccc1)S(=O)(=O)c1nnc(NC(=O)C2CCCCC2)s1`, for which the result was inactive. Consider `Cc1ccc(-c2nc(CS(=O)(=O)CC(=O)NC(C)CCc3ccccc3)c(C)o2)cc1` (stereo unspecified), for which the “activity change, negative = inhibition” value was inactive: 9.04%. Same read-out and setting: the result for `Cc1c(NC(=O)Nc2cccc(C(F)(F)F)c2)sc2nc3n(c(=O)c12)CCC(C)CC3` (stereo unspecified) reads inactive: -19.1%; that for `COc1ccc(/C=C/c2nc(C#N)c(N3CCC(C(N)=O)CC3)o2)cc1OC`, inactive: -2.32%. Regarding `O=C(NCc1ccc(Cl)cc1)C(=O)NCC(c1ccc2c(c1)OCO2)N1CCOCC1` (stereo unspecified), the compound was classed as inactive. `COCCN1C(=O)N(c2cccc(OC)c2)C(=O)C1CC(=O)Nc1ccccc1` (stereo unspecified): the “activity change, negative = inhibition” value is inactive: -1.25%. On the same count and under the same terms, then `CCCCc1nn2c(=O)cc(COC(=O)c3cccc(NC(=O)c4cccs4)c3)nc2s1`, with inactive: 6.58%.

With `COc1ccc(OC)c(CNS(=O)(=O)c2cc(-c3onc(C)c3C)ccc2C)c1`, the “activity change, negative = inhibition” value was inactive: -0.955%. Consider `Cc1cc(F)ccc1NC(=O)CCS(=O)(=O)c1cc2c3c(c1)CCN3C(=O)CC2`, for which the compound was classed as inactive.

As to `CCN(CC)C(=O)c1sc2c(c1C)c(=O)n(-c1ccc(C)c(C)c1)c(=O)n2CC(=O)Nc1ccc(OC)cc1OC`, the “activity change, negative = inhibition” value is inactive: -1.5%. Turning to `CN1C(=O)Cc2cc(S(=O)(=O)CCC(=O)Nc3ccc(Cl)cc3)ccc21`, the “activity change, negative = inhibition” value was inactive: -1.64%. Consider `COc1ccc(CCNC(=O)c2cnn(-c3cccc(C)c3)c2C2CCNCC2)cc1OC`, for which the “activity change, negative = inhibition” value was inactive: 9.68%. Still for that read-out and setting: the result for `CN(C)CCC=C1c2ccccc2COc2ccc(CC(=O)O)cc21` reads inactive: 0.933%; that for `CCOc1ccc2c(c1)c(=O)c(C(=O)c1ccccc1)cn2Cc1ccccc1F`, inactive: 2.82%; that for `CC(=O)c1ccc(NC(=O)c2cc3c([nH]c2=O)CC(c2ccccc2)CC3=O)cc1` (stereo unspecified), inactive: -15.4%. For `O=C(c1ccccc1)N1CCC(c2nc3ccccc3o2)CC1`, the outcome was inactive. As to `Cc1ccc(S(=O)(=O)c2[nH]c(-c3ccccc3)nc2SC(C)C(=O)O)cc1` (stereo unspecified), the “activity change, negative = inhibition” value was inactive: 1.97%. On the same count and under the same terms, the result for `COc1cc2ncnc(Nc3cccc(Br)c3)c2cc1OC` reads inactive: -17.3%. As for `COc1ccc(/C=C/C(=O)Nc2cc(-c3nc4ccccc4o3)ccc2OC)cc1`, the outcome was inactive. On the same count and under the same terms, then `CC(=O)c1ccc(NC(=O)CSc2nnc(-c3ccncc3)n2-c2ccccc2)cc1`, with “inactive”. In the case of `COc1ccc(N2CCN(CCCNC(=O)c3nnc(Cc4ccccc4Cl)o3)CC2)cc1`, the “activity change, negative = inhibition” value was inactive: 2.58%. `Cc1cc(C)n2c(Nc3ccc4c(c3)OCCO4)c(-c3ccccc3)nc2n1`: the “activity change, negative = inhibition” value was inactive: -9.68%. For the compound `CCS(=O)(=O)N1CC(=O)N(c2cc(C)cc(C)c2)C(C)(C(=O)NC2CCCCC2)C1` (stereo unspecified), the compound was called inactive. Regarding `COc1ccc(CNC(=O)C2CCN(C(=O)c3cnn(-c4ccccc4)c3-n3cccc3)CC2)cc1`, the “activity change, negative = inhibition” value is inactive: 5.74%. Still for that read-out and setting: the result for `Cc1ccc(NC(=O)CSc2nnc(-c3cc4occc4n3C)n2-c2ccccc2C)c(C)c1` reads inactive: -26.6%; that for `Oc1c(Cl)cc(Cl)c2cccnc12`, inactive: 0.603%. Same read-out and setting: then `COc1ccc(-n2c(SC)nc3sc4c(c3c2=O)CCN(C(C)=O)C4)cc1`, with inactive: 8.36%.

For `FC(F)(F)c1cccc(N2CCN(c3nc4ccccc4n4cnnc34)CC2)c1`, the “activity change, negative = inhibition” value is inactive: 4.92%.

Turning to `CCS(=O)(=O)N1CCc2cc(C(=O)NC(C)c3ccccc3)ccc21` (stereo unspecified), the “activity change, negative = inhibition” value was inactive: -4.63%. The same measure, in the same setting: then `CC(C)Oc1ccc(CNC(=O)CN2C(=O)c3cccnc3Oc3ccc(Cl)cc32)cc1`, with inactive: 16.8%.

`O=c1c2sc3ccccc3c2n(Cc2cccc(C(F)(F)F)c2)c(=O)n1-c1ccccc1`: the “activity change, negative = inhibition” value was inactive: 9.54%. On the same count and under the same terms, the result for `COC(=O)c1ccccc1NC(=O)CSc1n[nH]c(C)n1` reads inactive: -3.09%. For the compound `Cc1ccc2c(c1)N(C(=O)Nc1ccc(Br)cc1F)CCO2`, the call was inactive. Consider `Cc1ccn2c(=O)cc(COc3ccc(NC(=O)C(C)(C)C)cc3)nc2c1`, for which the “activity change, negative = inhibition” value is inactive: -6.64%. With `COC(=O)c1ccc(NS(=O)(=O)c2ccc3c(c2)n(C)c(=O)c(=O)n3C)cc1`, the call was inactive.

With `CCOC(=O)c1ccc(CN(Cc2ccc(F)cc2)S(=O)(=O)c2ccc(F)c(C(=O)Nc3ccccc3C(F)(F)F)c2)cc1`, the “activity change, negative = inhibition” value was inactive: -5.68%. With `Cn1c2c(c(=O)n(C)c1=O)C(c1ccccc1C(F)(F)F)CC(=O)N2` (stereo unspecified), the “activity change, negative = inhibition” value was inactive: 2.12%. Turning to `CC(C)(CC(=O)NCc1ccc(Cl)cc1Cl)CC1=NS(=O)(=O)c2ccccc2N1`, the “activity change, negative = inhibition” value was inactive: -16.3%. Still for that read-out and setting: then `CCCCCn1c(=N)c(S(=O)(=O)c2ccc(C)cc2)cc2c(=O)n3cc(C)ccc3nc21`, with inactive: 3.35%. Still for that read-out and setting: then `Cn1c(COc2ccccc2C(C)(C)C)nc2ccccc21`, with inactive: 2.07%. `COc1ccc(S(=O)(=O)c2cc3cc(C(C)(C)C)cc(O)c3oc2=O)cc1`: the call was inactive. For the compound `COc1cc(Cl)c(C)cc1NC(=O)C1CCCN(c2ncnc3onc(-c4ccc(F)cc4)c23)C1` (stereo unspecified), the “activity change, negative = inhibition” value was inactive: 0.487%. In the case of `O=C(c1ccc2c(c1)N(Cc1cccc(Cl)c1)C(=O)c1ccccc1S2(=O)=O)N1CCc2ccccc21`, the result was inactive.

On to `CCc1ccccc1N(CC)C(=O)C(=O)Nc1ccc2nc3n(c(=O)c2c1)CCCCC3`, for which the “activity change, negative = inhibition” value is inactive: 2.76%.

Take `Cc1ccc(C(=O)N2CCN(c3cccc(Cl)c3)CC2)cc1-n1c(C)nc2cccnc21`: the “activity change, negative = inhibition” value was inactive: 27.7%.
